The campaign covered roughly 45,000 compounds. About 65 (0.1%) were called active. The call rests on the fitted dose curve; in most records, active means well fitted activation curve with a large enough effect; inconclusive means small, poorly fitted or top-dose-only effect; inactive means no such curve, though single readings can be large or run the other way. The list shows a part of the results. Square brackets hold non-standard residues; d marks the D form. Peptide text beside a SMILES is read from it. pGlu = O=C1CC[C@@H](C(=O)O)N1
Target: Galactocerebrosidase (Homo sapiens) (UniProt P54803)
Assay: A Novel Cell-Based Assay to Identify Small Molecules for B -Galactocerebrosidase; further: 0% is about no effect; nearly all actives have a fitted effect of over 65% in size
Settings: 145M-Twi-hGALC-G270D cells (Twitcher mouse brain line with human GALC G270D), HMU-beta-Gal fluorescence, 48 h; series mostly up to 57.5 µM; activation: at the top concentration
Procedure, shortened: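 Brain-derived Twitcher mouse 145M-Twi cells stably expressing human GALC-G270D or wild-type GALC, treated live, then residual GALC activity read by fluorescence of HMU-b-Gal substrate (0.1 mM final) in citrate-phosphate buffer pH 5.2 with sodium taurocholate. Signal increase indicates enhancement.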

Sequence of UniProt P54803 (P54803 whole entry, looked up): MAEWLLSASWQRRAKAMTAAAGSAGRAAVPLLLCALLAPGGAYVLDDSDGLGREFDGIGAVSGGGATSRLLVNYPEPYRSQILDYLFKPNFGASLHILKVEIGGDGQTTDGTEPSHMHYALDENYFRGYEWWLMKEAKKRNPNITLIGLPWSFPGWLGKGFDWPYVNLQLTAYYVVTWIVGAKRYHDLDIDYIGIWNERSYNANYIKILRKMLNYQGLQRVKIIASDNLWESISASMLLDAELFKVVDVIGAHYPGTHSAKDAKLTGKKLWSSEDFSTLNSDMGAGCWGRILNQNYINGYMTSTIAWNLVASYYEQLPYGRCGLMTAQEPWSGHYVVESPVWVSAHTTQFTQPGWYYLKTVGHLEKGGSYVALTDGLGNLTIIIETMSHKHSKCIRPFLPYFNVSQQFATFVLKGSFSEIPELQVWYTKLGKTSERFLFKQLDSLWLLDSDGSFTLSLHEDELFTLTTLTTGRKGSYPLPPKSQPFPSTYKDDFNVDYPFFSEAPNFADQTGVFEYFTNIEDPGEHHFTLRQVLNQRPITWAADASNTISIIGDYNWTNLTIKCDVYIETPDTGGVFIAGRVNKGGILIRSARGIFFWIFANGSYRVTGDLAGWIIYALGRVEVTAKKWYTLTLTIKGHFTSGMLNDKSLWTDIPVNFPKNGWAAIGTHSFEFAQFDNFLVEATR

activation, inactive:
COc1ccccc1NC(=O)NCCCN1CCN(c2ccc(F)cc2)CC1 -2.77%, O=C(c1cnn(-c2cccc(F)c2)c1-n1cccc1)N1CCN(c2ccccc2F)CC1 -14.4%, Cc1ccc(-c2nc3ccccc3[nH]2)cc1NC(=O)COc1ccccc1[N+](=O)[O-] -19.5%, CCS(=O)(=O)c1ccc(OC)c(C(=O)OC)c1 -9.83%, COc1ccc(C(=O)Nc2cccc(-c3cn4ccsc4n3)c2)cc1OC -20.2%, CCCN1CCN(CCCNC(=O)c2ccc3c(c2)sc2nc(-c4ccc(OC)cc4)cn23)CC1 -9.61%, CCOC(=O)C1CCN(C(=O)Cn2nc(C)n3c(cc4sccc43)c2=O)CC1 -13.9%, Cc1ccccc1Cn1c(CN2CCC(C(=O)NCc3cccnc3)CC2)cc2ccccc21 -10.4%, Cn1c(SCC(=O)N2CCOCC2)ncc(C(=O)Nc2ccccc2)c1=O -7.46%, Cc1ccc2c(CNCC(C)c3ccccc3)c(C(=O)O)n(Cc3ccccc3C)c2c1 (stereo unspecified) 1.37%, CC1=C(C(=O)NCc2ccccc2Cl)C2(CCCCCC2)OC1=O -2.76%, Cc1ccc(CNC(=O)CCNS(=O)(=O)c2ccc3c(c2)oc(=O)n3C)cc1 -9.94%, Cc1oc(-c2cccc(Cl)c2)nc1CN1CCC(C(=O)NC(C)C)CC1 2.23%, Cc1cc(C)c(S(=O)(=O)Nc2ccc3oc(C)c(C(=O)OC(C)C)c3c2)cc1C -26.1%, O=C(COc1ccc(Br)cc1Br)Nc1ccc(S(=O)(=O)Nc2ncccn2)cc1 -12%, Cc1ccc(Cl)cc1NC(=O)Cn1c(=O)cc(C)c2c(C)nn(C)c21 -16%, Cc1ccc(NC(=O)CC2Oc3ccc(C)cc3NC2=O)c(C)c1 (stereo unspecified) -17.6%, COc1cccc(Nc2nnc(-c3cc4ccc(O)cc4oc3=O)s2)c1 -17%, CCOc1ccc(NC(=O)Cn2c(=O)n(CCc3ccccc3)c(=O)c3c4c(sc32)CCCC4)cc1 -3.36%, COc1cccc(C2CC(=O)Nc3c2c(=O)n(C)c2nc4ccccc4n32)c1OC (stereo unspecified) -3.22%, O=C(CCn1c(=O)c2sccc2n(Cc2ccc(F)cc2)c1=O)NCc1ccc2c(c1)OCO2 -1.37%, Cc1ccc(-n2nc3cc(C)c(NC(=O)c4ccc(-c5ccccc5)o4)cc3n2)cc1 -6.82%, CCOC(=O)C1=C(CN2CCN(c3ccc(Cl)cc3)CC2)NC(=O)NC1c1ccc(OC)cc1 (stereo unspecified) -19.6%, O=C(Cn1ncc2c3ccccc3n(Cc3ccccc3)c2c1=O)NCc1cccs1 -18%, Cc1ccc(Cl)cc1N1CCN(C(=O)Cn2cnc3onc(-c4ccc(F)cc4)c3c2=O)CC1 -26.3%, CCc1nc2ccc(C(=O)N3CCN(c4ccccc4F)CC3)cc2nc1CC -3.65%, COc1cccc2sc(NC(=O)c3ccc4c(c3)OCCO4)nc12 -5.52%, CC(=O)c1ccc(NC(=O)Cn2nc(C(F)(F)F)c3c2CCC3)cc1 -7.27%, Cc1ccc(CSc2c(C)cnc3c2c(=O)n(C)c(=O)n3C)cc1 -9.86%, CCCCNC(=O)CCC1N=C2c3ccccc3N=C(SCC(=O)NCCc3ccc(OC)c(OC)c3)N2C1=O (stereo unspecified) -25.6%, CCN(CC)CCNC(=O)CCn1c(=O)c2cccn2c2cccnc21 3.62%, Cc1ccc2nc(-c3ccc(NC(=O)Cc4ccccc4)cc3)sc2c1 -12.2%, CN1c2ccc(Cl)cc2-c2nc(SCC(=O)NCc3ccc(F)cc3)ncc2S1(=O)=O -19.9%, O=C1CCCc2cc(S(=O)(=O)NCC3CCC(C(=O)Nc4ccc(Cl)cc4)CC3)ccc2N1 (stereo unspecified) -13.9%, Cc1cc(Nc2ccc(Br)cc2)n2nc(-c3ccccc3C)nc2n1 -0.607%, CC1=C(C(=O)Nc2ccc(C)cc2C)C(c2ccccc2)n2nc(SCC(=O)c3ccc(C)cc3)nc2N1 (stereo unspecified) 2%, O=C(CSc1nc2ccsc2c(=O)n1Cc1ccc(F)cc1)NCc1ccc(Cl)cc1 -20.5%, COc1ccc(NC(=O)Cn2c(=O)oc3ccccc32)cc1 -7.27%, CCc1ccccc1NC(=O)CCNS(=O)(=O)c1ccc2c(c1)CCCC(=O)N2 -21.1%, CCCCCCOc1ccc(/C=C/C(=O)Nc2sc3c(c2C(=O)OC)CCC3)cc1OC -37.1%, O=C(NCC(c1ccc2c(c1)OCO2)N1CCOCC1)c1ccccc1 (stereo unspecified) -29.4%, Cc1c(O)nc(SCC(=O)Nc2ccc(Cl)cc2Cl)n(-c2ccc(F)cc2)c1=O -1.71%, CCC(C)NC(=O)c1cc2cc(S(=O)(=O)N3CCCCC3)ccc2n1C (stereo unspecified) -3.96%, CCN1CCN(c2ncc3c(n2)CCN(Cc2cc(Br)cs2)C3)CC1 -7.05%, CCC(C)c1ccc(OCC(=O)Nc2cccc3ccc(C)nc23)cc1 (stereo unspecified) -13.2%, Cc1nn(C)c2c1c(C(F)(F)F)cc(=O)n2CC(=O)NCc1ccc(OC(C)C)cc1 2.74%, Cc1ccc(CNS(=O)(=O)c2ccc(N3CCCCS3(=O)=O)cc2)cc1 -15.6%, O=C(CNC(=O)c1ccc(Cl)cc1)OCc1cc(=O)n2nc(C3CC3)sc2n1 -4.88%, COc1cc(Cn2c(=O)oc3ccc(C)cc32)ccc1OCCC(C)C -52.7%, CC(C)(C)c1ccc(S(=O)(=O)N2CCC(Oc3ccc(-n4cnnn4)cc3)CC2)cc1 4.73%, C/C(=N/NC(=O)c1ccncc1)C(=O)O -16.4%, Cc1cn(C)c(CC(=O)NCc2cccc(Cl)c2)c1C(=O)O -7.33%, CC(C)(C)c1ccc(CSC2=Nc3ccccc3C3=NC(CC(=O)NCc4cccs4)C(=O)N23)cc1 (stereo unspecified) -19.2%, Cc1ccc(Cn2c(C(=O)O)c(CNCc3ccc(C)o3)c3ccc(C)cc32)cc1 -4.54%, Cc1cccc(NC(=O)CN2C(=O)C3(SCC(=O)N3c3ccccc3)c3ccccc32)c1 (stereo unspecified) -14.8%, NC(=O)c1cnccn1 -16.2%, Cc1ccc(S(=O)(=O)N2CCN(Cc3ccccc3Cl)CC2)cc1 -12.2%, Cc1ccc(Cn2c(CCNC(=O)c3cccc(C)c3)nc3ccccc32)cc1 -16.1%, CCOC(=O)c1c(NC(=O)c2cc(=O)c3cc(C)ccc3o2)sc2c1CCCC2 -21.3%, COc1ccc(Cl)cc1NC(=O)CSC1=Nc2ccccc2C2=NC(CCC(=O)NCc3ccco3)C(=O)N12 (stereo unspecified) -17.8%, CCN(CC)c1ccc(NC(=O)CN2CCN(CC(=O)Nc3ccc(Cl)cc3)CC2)cc1 -11.8%, Cc1ccc2oc(C(=O)Nc3sc4c(c3C(=O)NCC3CCCO3)CCC4)cc(=O)c2c1 (stereo unspecified) -5.71%, COc1ccc(NC(=O)c2cccc(N3CCCS3(=O)=O)c2)c(OC)c1 4.77%, CC(C)Cn1cc(NC(=O)NCc2cccc(Cl)c2)c2ccccc2c1=O -25.8%, O=C(NCCC1=CCCCC1)c1ccc2c(c1)sc1nc(-c3ccc(F)cc3)cn12 -18.3%, O=C(NCCc1ccccc1)c1ccc2c(c1)N(Cc1ccc(F)cc1)C(=O)CS2 -27.7%, CC(NC(=O)c1cc2c(=O)n3ccccc3nc2n(C(C)C)c1=N)c1ccccc1 (stereo unspecified) -19.1%, CC(NC(=O)Cn1c(=O)oc2cc(S(=O)(=O)N3CCCCCC3)ccc21)c1ccccc1 (stereo unspecified) -16.9%, COC(=O)c1ccccc1NC(=O)c1nc(-c2ccc(C)cc2)n2c1CCCCC2 -6.59%, COCCNC(=O)Cn1nc(-c2ccccc2)c2ccccc2c1=O -7.18%, COc1cc(OC)c(C2CC(=O)Nc3ccc4ccccc4c32)cc1OC (stereo unspecified) -12.8%, Cc1cccc(-c2noc(-c3cc(C(C)C)[nH]n3)n2)c1 -20.3%, CC(=O)N1c2ccccc2C(=O)C1N1CCN(c2cccc(Cl)c2)CC1 (stereo unspecified) -16.6%, Cc1cn(C)c(CC(=O)NCc2ccc(Cl)cc2)c1C(=O)O -11%, COc1cccc(Cn2c(=O)n(CC3CCC(C(=O)NC(C)C)CC3)c(=O)c3sccc32)c1 (stereo unspecified) -6.52%, Cc1ccc(C2=NN(CC(=O)NCCc3ccccc3)C(=O)CC2)cc1 -13.4%, Cc1cccc(OC(=O)CSc2nnc(-c3ccc4c(c3)OCO4)o2)c1C -5.62%, COc1cc(NC(=O)CN2C(=O)CCc3cc(Br)ccc32)cc(OC)c1OC -32.2%, Cc1ccc(CCNS(=O)(=O)c2ccc3c(c2)C(C(C)C)C(=O)N3)cc1 (stereo unspecified) -23.7%, CCOc1ccc(C2c3c(-c4cc(C)ccc4O)n[nH]c3C(=O)N2Cc2cccnc2)cc1OCC (stereo unspecified) -18.8%, CCNC(=O)[C@@H]1CCCN1C(=O)[C@H](CCCN=C(N)N)NC(=O)[C@H](CC(C)C)NC(=O)CNC(=O)[C@H](Cc1ccc(O)cc1)NC(=O)[C@H](CO)NC(=O)[C@H](Cc1c[nH]c2ccccc12)NC(=O)[C@H](Cc1cnc[nH]1)NC(=O)[C@@H]1CCC(=O)N1 ([pGlu]HWSYGLRP-NHEt) -8.64%, COc1ccccc1NC(=O)CC(C)n1nc(C)cc1C (stereo unspecified) -19.8%, CC(C)(C)C(=O)NCCc1nc2ccccc2n1CCCCOc1ccccc1 -13.9%, Cc1ccc(N(CC(=O)N2CCN(c3ccc(F)cc3)CC2)S(=O)(=O)c2c(C)noc2C)cc1 -0.21%, COc1ccc(-n2nc3c(N4CCC(C(=O)NCc5ccccc5C)CC4)nnc(C)c3c2C)cc1 -14.2%, CCOC(=O)N1CCC(NC(=O)c2c(C)nn(-c3cccc(C)c3)c2-n2cccc2)CC1 -14.3%, COc1ccc(OC)c(CCNC(=O)CCCn2c(=O)c3cccn3c3ccc(F)cc32)c1 -1.94%, COc1ccccc1Nc1ncc2c(n1)CCN(Cc1ccc(C)s1)C2 -17.4%, Cc1cc(F)ccc1NC(=O)CCS(=O)(=O)c1cc2c(cc1C)NC(=O)CO2 5.01%, CCOC(=O)c1ccc(NC(=O)CSc2nc3c(c(=O)[nH]2)CN(Cc2ccccc2)CC3)cc1 -9.09%, Cc1ccc2c(=O)c(C(=O)c3cccc(Cl)c3)cn(CC(=O)NC3CCCCC3)c2n1 3.12%, CCOc1ccccc1CNCCCSc1nnnn1C -6.74%, Cc1ccc(CSc2cn(CC(=O)N3CCCCCC3)c3ccccc23)cc1 -3.52%, COc1cccc(CNC(=O)Cn2ncc3c(=O)oc4ccccc4c32)c1 -5.6%, O=S(=O)(NCc1ccc(F)cc1)c1ccc(N2CCCCS2(=O)=O)cc1 -11.3%, CCCN(Cc1cc2cccc(C)c2[nH]c1=O)C(=O)c1cccc(Cl)c1 -17.9%
